These results are taken from PubChem BioAssay AID1508623 (National Center for Advancing Translational Sciences (NCATS), 2021).

About 450 (0.94%) of roughly 48,000 compounds were called active. Another 19% or so got no clear call; they are omitted. Calls come from the whole dose curve; as a rule, active = well fitted inhibition curve with a large enough effect; inconclusive = small, poorly fitted or top-dose-only effect; inactive = no such curve, though single readings can be large or run the other way. This is one part of the list.

The assay is described as follows: Primary qHTS for Identification of Small Molecule Inhibitors of Huntingtin Promoter Activity. Note: nearly all actives have a fitted effect of over 50% in size. Particulars: HEK293 HTT promoter firefly luciferase reporter (activity 0% = vehicle and -100% = no light), 24 h; series mostly up to 57.5 µM; activity change, negative = inhibition: at the top concentration. An outline of the steps: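 HEK293 cells carrying firefly luciferase reporters were seeded at 2,500 per well in Opti-MEM and cultured for 24 h. They were then treated with compounds at up to 57.5 uM final for 24 h at 37 degrees C before Dual-Glo luminescence readout.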
On the technique in general: In qHTS, concentration-response curves come from the screen itself.
As to `CCOc1ccc(CNCCSc2nnnn2C)cc1OC`, the “activity change, negative = inhibition” value is inactive: -5.34%.

Turning to `Nc1ncnc2nc(-c3ccc(N4CCOCC4)nc3)cc(-c3cccc(Br)c3)c12`, the “activity change, negative = inhibition” value is inactive: 14.6%.

Consider `COc1ccc(-c2nc(C)c(CCNS(=O)(=O)c3ccc(F)cc3)s2)cc1OC`, for which the “activity change, negative = inhibition” value is inactive: -19.7%.

On to `COC(=O)c1ccccc1NC(=O)c1cn2c3c(ccc(Cl)c3c1=O)OC(C)C2` (stereo not drawn), for which the “activity change, negative = inhibition” value was inactive: -8.81%.

Take `CCCCNC(=O)C1CCN(c2nc3ccc(C)cc3[nH]2)CC1`: the “activity change, negative = inhibition” value is inactive: 12.3%.

For the molecule `CCOC(=O)c1cc(S(=O)(=O)N2CCN(c3cccc(C)c3C)CC2)[nH]n1`, the “activity change, negative = inhibition” value was inactive: -13.8%.

Take `CNC(=O)c1c(NC(=O)c2nc(SCc3ccc(C)cc3)ncc2Cl)sc2c1CCCC2`: the “activity change, negative = inhibition” value was inactive: -7.33%.

As to `Cc1ccc(NC(=O)Nc2cn(CC(C)C)c(=O)c3ccccc23)cc1N(C)C`, the “activity change, negative = inhibition” value was inactive: -24.9%.

In the case of `CCN(c1ccccc1C)S(=O)(=O)c1nnc(NC(=O)c2ccco2)s1`, the “activity change, negative = inhibition” value is inactive: -19.2%.

Consider `COc1ccccc1OCC(=O)N1CCC(c2nc3ccccc3o2)CC1`, for which the “activity change, negative = inhibition” value was inactive: -6.86%.

On to `Cc1ccc(-n2ncc(C(=O)NC3CCCCC3)c2C2CCN(C(=O)OC(C)(C)C)CC2)cc1`, for which the “activity change, negative = inhibition” value was inactive: 6.88%.

On to `COc1ccc(CNc2nc3c(-c4cccc(F)c4)nnn3c3ccccc23)cc1`, for which the “activity change, negative = inhibition” value is inactive: 33.4%.

Take `COc1ccc(-c2c(C)nn3c(C(F)(F)F)cc(-c4ccccc4)nc23)cc1OC`: the “activity change, negative = inhibition” value was inactive: -1.29%.

For the molecule `Cc1ccc(NC(=O)c2c(C)oc3c2C2=NCCN2C=N3)cc1F`, the “activity change, negative = inhibition” value was inactive: -24.1%.

For the molecule `Cc1cccn2c(=O)cc(CSc3nnc(NC(=O)COc4ccccc4)s3)nc12`, the “activity change, negative = inhibition” value is inactive: -7.94%.

For `COC(=O)c1cc2sccc2n1CC(=O)Nc1ccc(OC)c(OC)c1`, the “activity change, negative = inhibition” value was inactive: -21.3%.

Take `Cc1c(Cl)cccc1NC(c1ccc(F)cc1)c1nnc(-c2ccccc2)o1` (stereo not drawn): the “activity change, negative = inhibition” value is inactive: -18.8%.

For the molecule `O=C(Cn1cccc1C(=O)c1ccccc1)NCc1ccccc1Cl`, the “activity change, negative = inhibition” value was inactive: 23.8%.

In the case of `O=C(Nc1cccnc1)c1cc(-c2ccc(Cl)cc2)on1`, the “activity change, negative = inhibition” value is inactive: 0.412%.

Take `O=C(c1ccc2c(c1)N(Cc1cccc(F)c1)C(=O)c1ccccc1S2)N1CCC2(CC1)OCCO2`: the “activity change, negative = inhibition” value was inactive: -1.11%.

Regarding `Cc1ccc(-n2c(=O)c3c4c(sc3n(CC(=O)Nc3cccc(Cl)c3)c2=O)CCCCC4)cc1C`, the “activity change, negative = inhibition” value was inactive: -9.51%.

As to `COc1cc(C)nc(-n2nc(C)cc2OC)n1`, the “activity change, negative = inhibition” value was inactive: 6.77%.

With `CS(=O)(=O)Nc1ccc([N+](=O)[O-])cc1Oc1ccccc1`, the activity change, negative = inhibition result was “inactive”.

Take `Cc1cccc(C)c1OCC(=O)NC(Cc1c[nH]c2ccccc12)C(=O)O` (stereo not drawn): the “activity change, negative = inhibition” value was inactive: -8.79%.

As to `Cc1ccc(S(=O)(=O)NCc2nc3nc(C)cc(C)n3n2)cc1`, the “activity change, negative = inhibition” value was inactive: 12.6%.

As for `Cc1ccc(C)c(CN2CCCN(CC(=O)Nc3ccc(C)c(C)c3)S2(=O)=O)c1`, the “activity change, negative = inhibition” value was inactive: -21.1%.

With `CCN(CC)CCCNC(=O)c1ccc(Cn2c(=O)[nH]c3cc(OC)c(OC)cc3c2=O)cc1`, the “activity change, negative = inhibition” value is inactive: 1.63%.

Regarding `CCOC(=O)c1c(S(=O)(=O)N2CCC(C(=O)N3CCN(c4ccccc4F)CC3)CC2)c(C)n(C)c1C`, the “activity change, negative = inhibition” value is inactive: -12.6%.

`Cn1cc(C(=O)NCc2ccccc2Cl)c(=O)c2cc(S(=O)(=O)N3CCCCCC3)ccc21`: the activity change, negative = inhibition was inactive: -0.408% [at 11.5 µM].

With `CCn1cc(C(=O)O)c(=O)c2cc(F)c(N3CCNC(C)C3)c(F)c21` (stereo not drawn), the activity change, negative = inhibition entry was “inactive”.

For the molecule `CC(C)N(Cc1ccccc1)C(=O)Cn1ncc2c3ccccc3n(Cc3ccccc3)c2c1=O`, the “activity change, negative = inhibition” value was inactive: -20.2%.

`COc1ccc(CCNC(=O)c2cn(C)c3ccc(S(=O)(=O)N4CCOCC4)cc3c2=O)cc1OC`: the “activity change, negative = inhibition” value was inactive: 14.5%.

For the molecule `CCOC(=O)c1ccc(NC(=O)CCCn2c(=O)c3cccn3c3cccnc32)cc1`, the “activity change, negative = inhibition” value was inactive: -6.16%.

`Cc1nn(-c2ccc(Cl)cc2)c2nc(-c3cccnc3)cc(C(F)(F)F)c12`: the “activity change, negative = inhibition” value is inactive: -7.01%.

With `COc1ccc(NC(=O)C2CCN(S(=O)(=O)c3c(C)noc3/C=C/c3cccs3)CC2)cc1`, the “activity change, negative = inhibition” value is inactive: -19.3%.

With `COc1ccc(OC)c(S(=O)(=O)NCC(c2ccco2)S(=O)(=O)c2ccccc2)c1` (stereo not drawn), the “activity change, negative = inhibition” value is inactive: -15%.

Regarding `O=C(CSc1ccccc1)NCc1ccc2c(c1)CCN2C(=O)c1ccccc1`, the “activity change, negative = inhibition” value is inactive: -1.22%.

For `COc1cccc(-c2noc(CCCC(=O)NCc3ccco3)n2)c1`, the “activity change, negative = inhibition” value is inactive: 8.29%.

Turning to `CN(Cc1ccccc1)C(=O)CCS(=O)(=O)c1ccc2c(c1)oc(=O)n2C`, the “activity change, negative = inhibition” value is inactive: -7.74%.

In the case of `CCn1cc(S(=O)(=O)c2cccc(Cl)c2)c(=O)c2cc(F)c(N3CCN(C)CC3)cc21`, the “activity change, negative = inhibition” value is inactive: -17.6%.

With `COC(=O)c1ccccc1NC(=O)c1ccc(-c2nc(CSc3ccc(C)cc3)c(C)o2)cc1`, the “activity change, negative = inhibition” value was inactive: -20.8%.

Regarding `COc1ccccc1N1CCN(Cc2nnc(-c3ccccc3C)o2)CC1`, the “activity change, negative = inhibition” value is inactive: -8.88%.

Consider `COCCCn1c(=O)c2sccc2n2c(CCCC(=O)Nc3cccc(C(F)(F)F)c3)nnc12`, for which the “activity change, negative = inhibition” value is inactive: -15.3%.

For the molecule `CCOC(=O)c1cccc(NC(=O)c2ccc3nc(CCc4ccccc4)oc3c2)c1`, the “activity change, negative = inhibition” value is inactive: 25.4%.

As to `O=C(NCCCc1nc2ccccc2n1Cc1cccc(Cl)c1)C1CCCCC1`, the “activity change, negative = inhibition” value is inactive: -22.9%.

Consider `CCCCOC(=O)c1ccc(NC(=O)c2csnn2)cc1`, for which the “activity change, negative = inhibition” value is inactive: 4.27%.

`CC1=C(C(=O)Nc2ccccc2)C(c2ccc[nH]2)n2ncnc2N1` (stereo not drawn): the “activity change, negative = inhibition” value was inactive: -3.12%.

As to `CCCOc1ccc(C(=O)Nc2ccc3oc(-c4ccc(N(C)C)cc4)nc3c2)cc1`, the “activity change, negative = inhibition” value is inactive: -15%.
